In the antibiotic and cytotoxicity screens of Wong et al. (2023) one finds cytotoxicity call data, which are given here for 40 compounds.

Structures are written as SMILES. The list shows a part of the results.

The assay deals with HSkMC (human skeletal muscle cells). Description: cytotoxicity call (relative viability < 0.9). Conditions: 10 µM.
For the compound `C[C@@H]1CCCCO[C@@H](CN(C)Cc2ccc(C(F)(F)F)cc2)[C@H](C)CN([C@@H](C)CO)C(=O)c2cc(NC(=O)CCCN(C)C)ccc2O1`, the cytotoxicity call was “inactive”.
With `C[C@@H]1CN([C@@H](C)CO)C(=O)c2cc(NC(=O)c3ccccc3)ccc2O[C@@H](C)CCCCO[C@H]1CN(C)Cc1ccc(C(F)(F)F)cc1`, the cytotoxicity call was “inactive”.
Under `CCc1cc(Nc2nccc(-c3c(-c4ccc(OC)c(C(=O)Nc5c(F)cccc5F)c4)nc4ccccn34)n2)c(OC)cc1N1CCC(N2CCN(S(C)(=O)=O)CC2)CC1` stands “inactive”.
Under `N=C(N)NCCN1CCCCCCC1.O=S(=O)(O)O` stands “inactive”; under `C[C@H]1CN([C@@H](C)CO)C(=O)c2cc(NC(=O)c3ccncc3)ccc2O[C@H]1CN(C)Cc1ccc(C(=O)O)cc1`, “inactive”; under `C[C@@H]1CCCCO[C@H](CN(C)S(=O)(=O)c2ccccc2)[C@@H](C)CN([C@H](C)CO)C(=O)c2cc(NC(=O)Nc3ccc4c(c3)OCO4)ccc2O1`, “inactive”.
As for `C[C@H](CO)N1C[C@H](C)[C@H](CN(C)S(=O)(=O)c2ccc(Cl)cc2)Oc2ccc(NC(=O)Nc3cccc4ccccc34)cc2CC1=O`, the cytotoxicity call was “inactive”.
On to `COc1ccc(S(=O)(=O)Nc2ccc3c(c2)C(=O)N([C@H](C)CO)C[C@@H](C)[C@H](CN(C)S(=O)(=O)c2cn(C)cn2)OCCCC[C@@H](C)O3)cc1`, for which the cytotoxicity call is “inactive”.
Under `CN(C)CC#Cc1ccc([C@@H]2[C@@H](CO)N3C(=O)CN(C(=O)CN(C)C)C[C@@H]23)cc1` stands “inactive”.
As for `C[C@H]1CCCCO[C@H](CN(C)C(=O)Nc2ccc3c(c2)OCO3)[C@@H](C)CN([C@@H](C)CO)C(=O)c2cc(NS(=O)(=O)c3cccs3)ccc2O1`, the cytotoxicity call was “inactive”.
Under `Cc1cc(C(=O)Nc2cccc3c2O[C@H](CN(C)Cc2ccccc2)[C@H](C)CN([C@@H](C)CO)C3=O)n(C)n1` stands “inactive”.
Under `COC(=O)[C@H]1[C@H](C(=O)O)[C@@]2(C(=O)Nc3ccc(C#Cc4ccc(OC)cc4)cc32)[C@@H](c2ccccc2)N1C` stands “inactive”; under `CCOC(=O)[C@H]1[C@@H]2[C@@H](Cc3ccccc3N)[C@@H](C(=O)OCC)N(c3ccc(OC)cc3)C(=O)[C@@]23C=C[C@@H]1O3`, “inactive”; under `COc1cccc(S(=O)(=O)Nc2ccc3c(c2)[C@H]2C[C@@H](CC(=O)N4CCCCC4)O[C@H](CO)[C@H]2O3)c1`, “inactive”.
Under `Cc1noc(C)c1S(=O)(=O)N(C)C[C@@H]1OCCCC[C@@H](C)Oc2ccc(N(C)C)cc2C(=O)N([C@H](C)CO)C[C@H]1C` stands “inactive”; under `C[C@@H]1CCCCO[C@H](CN(C)C(=O)C2CCCCC2)[C@@H](C)CN([C@@H](C)CO)C(=O)c2cc(NC(=O)c3ccccc3)ccc2O1`, “inactive”; under `O=c1/c(=C/c2cccc(Cl)c2)c2cccc3cccc1c32`, “inactive”.
As for `C[C@@H]1CCCCO[C@@H](CN(C)C(=O)Nc2cccc3ccccc23)[C@@H](C)CN([C@@H](C)CO)C(=O)c2cc(NC(=O)C3CCCCC3)ccc2O1`, the cytotoxicity call is “active”.
On to `C[C@H](CO)N1C[C@H](C)[C@H](CN(C)C(=O)C2CCOCC2)Oc2ncc(C#CCc3ccccc3)cc2C1=O`, for which the cytotoxicity call is “inactive”.
Under `C[C@@H]1CN([C@@H](C)CO)C(=O)Cc2cc(NC(=O)Nc3ccc(F)cc3)ccc2O[C@@H]1CN(C)Cc1ccc(C(=O)Nc2ccccc2N)cc1` stands “inactive”; under `Cc1ccc(S(=O)(=O)Nc2ccc3c(c2)C(=O)N([C@@H](C)CO)C[C@H](C)[C@H](CN(C)C(=O)Nc2ccc(C(F)(F)F)cc2)O3)cc1`, “inactive”; under `OC[C@@H](O)[C@@H](O)CO`, “inactive”.
Under `COc1ccc([C@H]([C@H](Cc2ccccc2)OC(C)=O)N(C/C=C/[C@@H](OC(C)=O)c2ccccc2)[C@@H](Cc2ccccc2)C(OC)OC)cc1` stands “inactive”.
Regarding `C[C@H](CO)N1C[C@H](C)[C@H](CN(C)S(=O)(=O)c2cn(C)cn2)Oc2c(NC(=O)NC3CCCCC3)cccc2C1=O`, the cytotoxicity call was “inactive”.
`C[C@H](CO)N1C[C@H](C)[C@@H](CN(C)C(=O)Nc2ccc(C(C)(C)C)cc2)OCc2cn(nn2)CCCC1=O`: the cytotoxicity call is “inactive”.
Under `CC(C)N(CCOc1c(Br)cc(/C=C/C(=O)NCCCOc2c(Br)cc(CCN(C)C)cc2Br)cc1Br)C(C)C` stands “active”.
For the compound `O=C(NO)c1cn(CC(=O)N2CCC3(CC2)C(=O)NCN3c2ccccc2)nn1`, the cytotoxicity call was “inactive”.
Under `CC(=O)O[C@@H](C)C[N+](C)(C)C` stands “inactive”.
As for `CC(=O)N1CCn2nncc2C[C@@]1(C)C1CC1`, the cytotoxicity call is “inactive”.
Under `Cc1cccc(S(=O)(=O)N2C[C@@H](O)COC[C@H]3O[C@@H](CC(=O)NCCCN4CCOCC4)CC[C@@H]32)c1` stands “inactive”.
Under `Cc1noc(C)c1S(=O)(=O)Nc1ccc2c(c1)C(=O)N([C@H](C)CO)C[C@H](C)[C@H](CN(C)Cc1ccncc1)O2` stands “inactive”; under `CN1CCN(C(=O)C[C@@H]2CC[C@H]3[C@@H](COC[C@@H](O)CN3C(=O)C3CCCC3)O2)CC1`, “inactive”.
Under `O=C(C[C@@H]1CC[C@@H]2[C@H](COC[C@@H](O)CN2C(=O)c2ccccn2)O1)NC1CCC1` stands “inactive”; under `Cc1noc(C)c1S(=O)(=O)N(C)C[C@@H]1Oc2ccc(NC(=O)CCC(F)(F)F)cc2CC(=O)N([C@H](C)CO)C[C@@H]1C`, “inactive”.
As to `C[C@@H]1CCCCO[C@H](CN(C)S(=O)(=O)c2cccs2)[C@H](C)CN([C@@H](C)CO)C(=O)c2cc(NC(=O)NC3CCCCC3)ccc2O1`, the cytotoxicity call is “inactive”.
Under `C[C@H](NC(=O)N(C)C[C@H]1OCc2ccccc2-c2ccccc2C(=O)N([C@@H](C)CO)C[C@H]1C)c1ccccc1` stands “inactive”; under `C[C@@H]1CCCCO[C@@H](CN(C)S(=O)(=O)c2ccc(F)cc2)[C@@H](C)CN([C@@H](C)CO)C(=O)c2cc(NC(=O)Cc3ccccc3)ccc2O1`, “inactive”.
Under `C[C@@H]1CCCCO[C@@H](CN(C)C(=O)NC2CCCCC2)[C@@H](C)CN([C@H](C)CO)C(=O)c2cc(NC(=O)CCC(F)(F)F)ccc2O1` stands “inactive”.
Under `COc1ccc(S(=O)(=O)Nc2cccc3c2O[C@@H](CN(C)S(=O)(=O)c2cn(C)cn2)[C@@H](C)CN([C@H](C)CO)C3=O)cc1` stands “inactive”.
Turning to `COc1ccc(S(=O)(=O)N(C)C[C@H]2Oc3ccc(NC(=O)CCC(F)(F)F)cc3CC(=O)N([C@@H](C)CO)C[C@@H]2C)cc1`, the cytotoxicity call is “inactive”.
